This is one part of the list.
B1: PhoQ; a variant is named by its letters at X, in order, P23837 (parent)
chain: MKKLLRLFFPLSLRVRFLLATAAVVLVLSLAYGMVALIGYSVSFDKTTFRLLRGESNLFYTLAKWENNKLHVELPENIDKQSPTMTLIYDENGQLLWAQRDVPWLMKMIQPDWLKSNGFHEIEADVNDTSLLLSGDHSIQQQLQEVREDDDDAEMTHSVAVNVYPATSRMPKLTIVVVDTIPVELKSSYMVWSWFIYVLSANLLLVIPLLWVAAWWSLRPIEALAKEVRELEEHNRELLNPATTRELTSLVRNLNRLLKSERERYDKYRTTLTDLTHSLKTPLXXLQXXLRSLRSEKMSVSDAEPVMLEQISRISQQIGYYLHRASMRGGTLLSRELHPVAPLLDNLTSALNKVYQRKGVNISLDISPEISFVGEQNDFVEVMGNVLDNACKYCLEFVEISARQTDEHLYIVVEDDGPGIPLSKREVIFDRGQRVDTLRPGQGVGLAVAREITEQYEGKIVAGESMLGGARMEVIFGRQHSAPKDE

Variants of: B1
Assay: enrichment ratio after two sorts for PhoP signalling (ratio (wild type AVST 3.29)); higher = more functional
Conditions: with PhoP (E. coli)

Variant | enrichment ratio
TWVG | ≤ 0.25
VMDF | ≤ 0.25
HMPH | ≤ 0.25
WKSL | ≤ 0.25
VMIC | ≤ 0.25
DPPE | ≤ 0.25
AEIR | 2.03
MPPP | ≤ 0.25
GCAY | ≤ 0.25
ISHF | ≤ 0.25
NFLS | ≤ 0.25
TTKP | ≤ 0.25
YQVT | ≤ 0.25
WPAN | ≤ 0.25
IFMT | ≤ 0.25
NFYM | ≤ 0.25
MDTW | ≤ 0.25
EDGQ | ≤ 0.25
IQFE | ≤ 0.25
GKHR | ≤ 0.25
MVNL | ≤ 0.25
NWVT | ≤ 0.25
YPAL | ≤ 0.25
SDHI | ≤ 0.25

Variant | enrichment ratio
YQDH | ≤ 0.25
MGPN | ≤ 0.25
FELC | 4.63
TDPW | ≤ 0.25
QLAK | ≤ 0.25
QGKF | ≤ 0.25
IYPM | ≤ 0.25
GFVY | ≤ 0.25
MWHI | ≤ 0.25
REVY | ≤ 0.25
EPNC | ≤ 0.25
MMVM | ≤ 0.25
AFKN | ≤ 0.25
TRYI | ≤ 0.25
NDVE | ≤ 0.25
KRVH | ≤ 0.25
WMPP | ≤ 0.25
VEVI | ≤ 0.25
ANAP | ≤ 0.25
VLWA | ≤ 0.25
YCMI | 5.48
YASH | ≤ 0.25
FKNF | ≤ 0.25
WVHT | ≤ 0.25

Variant | enrichment ratio
TWRD | ≤ 0.25
FKAM | ≤ 0.25
SEFL | 6.11
SRNW | ≤ 0.25
KARD | ≤ 0.25
EVFR | ≤ 0.25
DARW | ≤ 0.25
QEYV | ≤ 0.25
TVLE | ≤ 0.25
MCQF | ≤ 0.25
FMMH | ≤ 0.25
WCFV | ≤ 0.25
GPNH | ≤ 0.25
RQLS | ≤ 0.25
NRSV | ≤ 0.25
TVMI | 1.87
KKPA | ≤ 0.25
ACIF | 9.1
YCLA | 3.46
DGFS | ≤ 0.25
YHAD | ≤ 0.25
TDVC | 24.1
YATQ | 0.489
VAFN | ≤ 0.25

Variant | enrichment ratio
YLIM | ≤ 0.25
FCPW | ≤ 0.25
DPTA | ≤ 0.25
GYEA | ≤ 0.25
FMAM | ≤ 0.25
AIEF | ≤ 0.25
LMTD | ≤ 0.25
SRYW | ≤ 0.25
WLGS | ≤ 0.25
NCRQ | ≤ 0.25
FVFE | ≤ 0.25
KFIV | ≤ 0.25
RGEK | ≤ 0.25
RHHT | ≤ 0.25
RHPP | ≤ 0.25
PQNR | ≤ 0.25
HTYG | ≤ 0.25
SRDI | 0.315
HQPK | ≤ 0.25
VCNA | ≤ 0.25
DPWY | ≤ 0.25
RIRP | ≤ 0.25
YRKY | 1.52
VVPY | ≤ 0.25

Variant | enrichment ratio
ILAV | ≤ 0.25
DMES | ≤ 0.25
DELY | ≤ 0.25
VNKN | ≤ 0.25
HVFF | ≤ 0.25
MHVQ | ≤ 0.25
PIDV | ≤ 0.25
QVDC | ≤ 0.25
VIYH | ≤ 0.25
TMPH | ≤ 0.25
SRKN | ≤ 0.25
DCTH | ≤ 0.25
RKEF | ≤ 0.25
KPHV | ≤ 0.25
HEGP | ≤ 0.25
NRFD | ≤ 0.25
HVCP | ≤ 0.25
SKEN | ≤ 0.25
VYTS | ≤ 0.25
ITGV | ≤ 0.25
ILLQ | ≤ 0.25
YAVK | ≤ 0.25
PALW | ≤ 0.25
QPAV | ≤ 0.25

Variant | enrichment ratio
KECG | ≤ 0.25
VWWP | ≤ 0.25
LFCI | ≤ 0.25
DLYQ | ≤ 0.25
DQSV | ≤ 0.25
MRDQ | ≤ 0.25
IGTP | ≤ 0.25
FRLC | ≤ 0.25
QLVW | ≤ 0.25
VPYS | ≤ 0.25
PRWS | ≤ 0.25
GRSR | ≤ 0.25
TNMY | ≤ 0.25
SKRF | ≤ 0.25
TCPP | ≤ 0.25
VRSF | ≤ 0.25
LGRP | ≤ 0.25
HASD | ≤ 0.25
NQWC | ≤ 0.25
AWII | ≤ 0.25
TGPS | ≤ 0.25
YFSG | ≤ 0.25
LINT | ≤ 0.25
WQCS | ≤ 0.25

Variant | enrichment ratio
DWCQ | ≤ 0.25
DWYY | ≤ 0.25
SDCC | 8.06
IGST | ≤ 0.25
PNAH | ≤ 0.25
ICKW | ≤ 0.25
SGQV | 7.41
HHML | ≤ 0.25
VWAQ | ≤ 0.25
SVDV | ≤ 0.25
RYRY | ≤ 0.25
YHTQ | ≤ 0.25
KHTR | ≤ 0.25
QKDI | ≤ 0.25
EAYS | ≤ 0.25
IRHT | ≤ 0.25
NEEF | ≤ 0.25
DGLC | ≤ 0.25
GHWR | ≤ 0.25
NMMW | ≤ 0.25
TGHD | ≤ 0.25
YLPQ | ≤ 0.25
MMLN | ≤ 0.25
LWYP | ≤ 0.25

Variant | enrichment ratio
MQGC | ≤ 0.25
HKII | ≤ 0.25
PIRN | ≤ 0.25
HTCL | ≤ 0.25
EIPD | ≤ 0.25
VGSD | ≤ 0.25
GKFV | ≤ 0.25
MHST | ≤ 0.25
FFYG | ≤ 0.25
PRGF | ≤ 0.25
VWPN | ≤ 0.25
LYHV | ≤ 0.25
VALW | ≤ 0.25
HMGK | ≤ 0.25
DLSI | ≤ 0.25
MMAK | ≤ 0.25
IPPP | ≤ 0.25
TKWW | ≤ 0.25
HYKR | ≤ 0.25
SPQP | ≤ 0.25
IDRY | ≤ 0.25
NPYQ | ≤ 0.25
LCHE | ≤ 0.25
PFGW | ≤ 0.25

Variant | enrichment ratio
DMTV | ≤ 0.25
CAIY | ≤ 0.25
MFPI | ≤ 0.25
WLYS | ≤ 0.25
IDPG | ≤ 0.25
GMDG | ≤ 0.25
YVQP | ≤ 0.25
DVGI | ≤ 0.25
YVHF | ≤ 0.25
ALMQ | 2.62
SRTC | ≤ 0.25
WWYA | ≤ 0.25
TDVH | 10.9
KTMD | ≤ 0.25
WTMV | ≤ 0.25
HGNW | ≤ 0.25
MCMT | ≤ 0.25
WGGY | ≤ 0.25
YDWP | ≤ 0.25
ELKM | ≤ 0.25
ISAS | ≤ 0.25
AHKH | ≤ 0.25
LWVG | ≤ 0.25
RYHD | ≤ 0.25

Variant | enrichment ratio
VWMK | ≤ 0.25
VICT | ≤ 0.25
PRDN | ≤ 0.25
TMQH | 4.24
ITMC | ≤ 0.25
VQCK | ≤ 0.25
GKCY | ≤ 0.25
DEVC | ≤ 0.25
PQAR | ≤ 0.25
GCFY | ≤ 0.25
NFAN | ≤ 0.25
QVKF | ≤ 0.25
HPES | ≤ 0.25
RPTA | ≤ 0.25
FDYL | ≤ 0.25
VQLC | ≤ 0.25
AWHC | ≤ 0.25
YFRC | ≤ 0.25
KAHI | ≤ 0.25
TIFA | ≤ 0.25
FKHG | ≤ 0.25
HHES | ≤ 0.25
FSHG | ≤ 0.25
TFNM | ≤ 0.25

Variant | enrichment ratio
KYKT | ≤ 0.25
WTRR | ≤ 0.25
KKKI | ≤ 0.25
QKMI | ≤ 0.25
DLWC | ≤ 0.25
MIHF | 3.77
QLFP | ≤ 0.25
TSWV | 11
LRRK | ≤ 0.25
IVYP | ≤ 0.25
ACSG | 12.3
QDGA | ≤ 0.25
RDKP | ≤ 0.25
MMIM | ≤ 0.25
WYSQ | ≤ 0.25
ACTV | 8.69
MMVS | ≤ 0.25
ASPS | ≤ 0.25
WHNN | ≤ 0.25
DTKY | ≤ 0.25
RTER | ≤ 0.25
NGGH | ≤ 0.25
FAAH | ≤ 0.25
DMEY | ≤ 0.25

Variant | enrichment ratio
PTGY | ≤ 0.25
MHPR | ≤ 0.25
MKGS | 2.48
DTIR | ≤ 0.25
YRMK | ≤ 0.25
QDID | ≤ 0.25
FRER | ≤ 0.25
TGAN | 2.47
PTQD | ≤ 0.25
FRIA | ≤ 0.25
CIVS | ≤ 0.25
PTSL | ≤ 0.25
SALH | 10.3
TYEY | ≤ 0.25
YQNL | ≤ 0.25
LAVT | ≤ 0.25
LLGI | ≤ 0.25
SMTR | 0.844
PQYW | ≤ 0.25
ECHG | ≤ 0.25
TNYQ | ≤ 0.25
AFAY | ≤ 0.25
VPRW | ≤ 0.25
VFKF | ≤ 0.25

Variant | enrichment ratio
QFNY | ≤ 0.25
YSDL | ≤ 0.25
GVGC | ≤ 0.25
KDRN | ≤ 0.25
ATAA | ≤ 0.25
GGAD | ≤ 0.25
DMDL | ≤ 0.25
YASA | ≤ 0.25
QWPT | ≤ 0.25
GRPN | ≤ 0.25
PLDC | ≤ 0.25
VAMR | ≤ 0.25
GSTI | 12.2
HKHN | ≤ 0.25
SGMT | 6.68
DACM | ≤ 0.25
IAKG | ≤ 0.25
IPYT | ≤ 0.25

From a collection of fitness landscapes (doi:10.1126/science.1257360)
